± gives the standard deviation of the averaged measurements. Restriction of a single-cycle SIVsab GFP reporter by TRIM5α v1-loop variants in CRFK cells. Human variants: read share among cells still uninfected after two challenges over input, higher = gained restriction. Rhesus variants: share among infected cells over input, higher = lost restriction. Reporter dose not given per row. No active / inactive call per row; the paper calls a change when both replicates lie above its controls (mean + 2 SD of stop or wild-type variants, or the top frameshift score). Residues outside the varied loop are taken from Swiss-Prot. The paper reads the human single-substitution scores as noise; they and the rhesus combinations repeat poorly (rank correlation 0.3 to 0.4), indel scores repeat only for the top variants, rhesus substitutions well (0.9).
What follows are sequences tested on SIVsab (simian immunodeficiency virus of sabaeus monkeys), single-cycle GFP reporter, in CRFK cells (assay: enrichment among infected cells over input (fold); higher = weaker restriction). Conditions: library: human / rhesus combinations.
Protocol: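 Pools of CRFK cells expressing variants of the TRIM5α v1 loop were challenged with the single-cycle reporter, sorted by GFP and sequenced; mean of two replicates.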

| Sequence | enrichment |
| --- | --- |
| MASGILLNVKEEVTCPICLELLTEPLSLHCGHSFCQACITANHKKSMLYKEGERSCPVCRISYQPENIQPNRHVANIVEKLREVKLSPEEGQKVDHCARHGEKLLLFCQEDSKVICWLCERSQEHRGHHTFLMEEVAQEYHVKLQTALEMLRQKQQEAEKLEADIREEKASWKIQIDYDKTNVSADFEQLREILDWEESNELQNLEKEEEDILKSLTKSETEMVQQTQYMRELISELEHRLQGSMMDLLQGVDGIIKRIENMTLKKPKTFHKNQRRVFRAPDLKGMLDMFRELTDARRYWVDVTLAPNNISHAVIAEDKRQVSSRNPQIMYQARGTRFTFPTFVNFNYCTGVLGSQSITSGKHYWEVDVSKKSAWILGVCAGFQSDAMYNIEQNENYQPKYGYWVIGLQEGVKYSVFQDGSSHTPFAPFIVPLSVIICPDRVGVFVDYEACTVSFFNITNHGFLIYKFSQCSFSKPVFPYLNPRKCTVPMTLCSPSS [rhesus TRIM5α, 332-344 = QARGTRFTFPTFV] | 0.463 ± 0.54 |
| MASGILLNVKEEVTCPICLELLTEPLSLHCGHSFCQACITANHKKSMLYKEGERSCPVCRISYQPENIQPNRHVANIVEKLREVKLSPEEGQKVDHCARHGEKLLLFCQEDSKVICWLCERSQEHRGHHTFLMEEVAQEYHVKLQTALEMLRQKQQEAEKLEADIREEKASWKIQIDYDKTNVSADFEQLREILDWEESNELQNLEKEEEDILKSLTKSETEMVQQTQYMRELISELEHRLQGSMMDLLQGVDGIIKRIENMTLKKPKTFHKNQRRVFRAPDLKGMLDMFRELTDARRYWVDVTLAPNNISHAVIAEDKRQVSSRNPQIMYGARGTRYTFPTFVNFNYCTGVLGSQSITSGKHYWEVDVSKKSAWILGVCAGFQSDAMYNIEQNENYQPKYGYWVIGLQEGVKYSVFQDGSSHTPFAPFIVPLSVIICPDRVGVFVDYEACTVSFFNITNHGFLIYKFSQCSFSKPVFPYLNPRKCTVPMTLCSPSS [rhesus TRIM5α, 332-344 = GARGTRYTFPTFV] | 1.01 ± 0.18 |
| MASGILLNVKEEVTCPICLELLTEPLSLHCGHSFCQACITANHKKSMLYKEGERSCPVCRISYQPENIQPNRHVANIVEKLREVKLSPEEGQKVDHCARHGEKLLLFCQEDSKVICWLCERSQEHRGHHTFLMEEVAQEYHVKLQTALEMLRQKQQEAEKLEADIREEKASWKIQIDYDKTNVSADFEQLREILDWEESNELQNLEKEEEDILKSLTKSETEMVQQTQYMRELISELEHRLQGSMMDLLQGVDGIIKRIENMTLKKPKTFHKNQRRVFRAPDLKGMLDMFRELTDARRYWVDVTLAPNNISHAVIAEDKRQVSSRNPQIMYGAPGTLYTFQSFTNFNYCTGVLGSQSITSGKHYWEVDVSKKSAWILGVCAGFQSDAMYNIEQNENYQPKYGYWVIGLQEGVKYSVFQDGSSHTPFAPFIVPLSVIICPDRVGVFVDYEACTVSFFNITNHGFLIYKFSQCSFSKPVFPYLNPRKCTVPMTLCSPSS [rhesus TRIM5α, 332-344 = GAPGTLYTFQSFT] | 1.24 ± 0.1 |
| MASGILLNVKEEVTCPICLELLTEPLSLHCGHSFCQACITANHKKSMLYKEGERSCPVCRISYQPENIQPNRHVANIVEKLREVKLSPEEGQKVDHCARHGEKLLLFCQEDSKVICWLCERSQEHRGHHTFLMEEVAQEYHVKLQTALEMLRQKQQEAEKLEADIREEKASWKIQIDYDKTNVSADFEQLREILDWEESNELQNLEKEEEDILKSLTKSETEMVQQTQYMRELISELEHRLQGSMMDLLQGVDGIIKRIENMTLKKPKTFHKNQRRVFRAPDLKGMLDMFRELTDARRYWVDVTLAPNNISHAVIAEDKRQVSSRNPQIMYGAPGTLYTFQSLVNFNYCTGVLGSQSITSGKHYWEVDVSKKSAWILGVCAGFQSDAMYNIEQNENYQPKYGYWVIGLQEGVKYSVFQDGSSHTPFAPFIVPLSVIICPDRVGVFVDYEACTVSFFNITNHGFLIYKFSQCSFSKPVFPYLNPRKCTVPMTLCSPSS [rhesus TRIM5α, 332-344 = GAPGTLYTFQSLV] | 1.14 ± 0.19 |
| MASGILLNVKEEVTCPICLELLTEPLSLHCGHSFCQACITANHKKSMLYKEGERSCPVCRISYQPENIQPNRHVANIVEKLREVKLSPEEGQKVDHCARHGEKLLLFCQEDSKVICWLCERSQEHRGHHTFLMEEVAQEYHVKLQTALEMLRQKQQEAEKLEADIREEKASWKIQIDYDKTNVSADFEQLREILDWEESNELQNLEKEEEDILKSLTKSETEMVQQTQYMRELISELEHRLQGSMMDLLQGVDGIIKRIENMTLKKPKTFHKNQRRVFRAPDLKGMLDMFRELTDARRYWVDVTLAPNNISHAVIAEDKRQVSSRNPQIMYGARGTLFTFQTLTNFNYCTGVLGSQSITSGKHYWEVDVSKKSAWILGVCAGFQSDAMYNIEQNENYQPKYGYWVIGLQEGVKYSVFQDGSSHTPFAPFIVPLSVIICPDRVGVFVDYEACTVSFFNITNHGFLIYKFSQCSFSKPVFPYLNPRKCTVPMTLCSPSS [rhesus TRIM5α, 332-344 = GARGTLFTFQTLT] | 1.15 ± 0.49 |
| MASGILLNVKEEVTCPICLELLTEPLSLHCGHSFCQACITANHKKSMLYKEGERSCPVCRISYQPENIQPNRHVANIVEKLREVKLSPEEGQKVDHCARHGEKLLLFCQEDSKVICWLCERSQEHRGHHTFLMEEVAQEYHVKLQTALEMLRQKQQEAEKLEADIREEKASWKIQIDYDKTNVSADFEQLREILDWEESNELQNLEKEEEDILKSLTKSETEMVQQTQYMRELISELEHRLQGSMMDLLQGVDGIIKRIENMTLKKPKTFHKNQRRVFRAPDLKGMLDMFRELTDARRYWVDVTLAPNNISHAVIAEDKRQVSSRNPQIMYGAPGTRYTFQSFTNFNYCTGVLGSQSITSGKHYWEVDVSKKSAWILGVCAGFQSDAMYNIEQNENYQPKYGYWVIGLQEGVKYSVFQDGSSHTPFAPFIVPLSVIICPDRVGVFVDYEACTVSFFNITNHGFLIYKFSQCSFSKPVFPYLNPRKCTVPMTLCSPSS [rhesus TRIM5α, 332-344 = GAPGTRYTFQSFT] | 1.27 ± 0.079 |
| MASGILLNVKEEVTCPICLELLTEPLSLHCGHSFCQACITANHKKSMLYKEGERSCPVCRISYQPENIQPNRHVANIVEKLREVKLSPEEGQKVDHCARHGEKLLLFCQEDSKVICWLCERSQEHRGHHTFLMEEVAQEYHVKLQTALEMLRQKQQEAEKLEADIREEKASWKIQIDYDKTNVSADFEQLREILDWEESNELQNLEKEEEDILKSLTKSETEMVQQTQYMRELISELEHRLQGSMMDLLQGVDGIIKRIENMTLKKPKTFHKNQRRVFRAPDLKGMLDMFRELTDARRYWVDVTLAPNNISHAVIAEDKRQVSSRNPQIMYGAPGTRYTFQTFTNFNYCTGVLGSQSITSGKHYWEVDVSKKSAWILGVCAGFQSDAMYNIEQNENYQPKYGYWVIGLQEGVKYSVFQDGSSHTPFAPFIVPLSVIICPDRVGVFVDYEACTVSFFNITNHGFLIYKFSQCSFSKPVFPYLNPRKCTVPMTLCSPSS [rhesus TRIM5α, 332-344 = GAPGTRYTFQTFT] | 1.64 ± 0.94 |
| MASGILLNVKEEVTCPICLELLTEPLSLHCGHSFCQACITANHKKSMLYKEGERSCPVCRISYQPENIQPNRHVANIVEKLREVKLSPEEGQKVDHCARHGEKLLLFCQEDSKVICWLCERSQEHRGHHTFLMEEVAQEYHVKLQTALEMLRQKQQEAEKLEADIREEKASWKIQIDYDKTNVSADFEQLREILDWEESNELQNLEKEEEDILKSLTKSETEMVQQTQYMRELISELEHRLQGSMMDLLQGVDGIIKRIENMTLKKPKTFHKNQRRVFRAPDLKGMLDMFRELTDARRYWVDVTLAPNNISHAVIAEDKRQVSSRNPQIMYGARGTLFTFQSLTNFNYCTGVLGSQSITSGKHYWEVDVSKKSAWILGVCAGFQSDAMYNIEQNENYQPKYGYWVIGLQEGVKYSVFQDGSSHTPFAPFIVPLSVIICPDRVGVFVDYEACTVSFFNITNHGFLIYKFSQCSFSKPVFPYLNPRKCTVPMTLCSPSS [rhesus TRIM5α, 332-344 = GARGTLFTFQSLT] | 0.779 ± 0.18 |
| MASGILLNVKEEVTCPICLELLTEPLSLHCGHSFCQACITANHKKSMLYKEGERSCPVCRISYQPENIQPNRHVANIVEKLREVKLSPEEGQKVDHCARHGEKLLLFCQEDSKVICWLCERSQEHRGHHTFLMEEVAQEYHVKLQTALEMLRQKQQEAEKLEADIREEKASWKIQIDYDKTNVSADFEQLREILDWEESNELQNLEKEEEDILKSLTKSETEMVQQTQYMRELISELEHRLQGSMMDLLQGVDGIIKRIENMTLKKPKTFHKNQRRVFRAPDLKGMLDMFRELTDARRYWVDVTLAPNNISHAVIAEDKRQVSSRNPQIMYQARGTRFTFPSFVNFNYCTGVLGSQSITSGKHYWEVDVSKKSAWILGVCAGFQSDAMYNIEQNENYQPKYGYWVIGLQEGVKYSVFQDGSSHTPFAPFIVPLSVIICPDRVGVFVDYEACTVSFFNITNHGFLIYKFSQCSFSKPVFPYLNPRKCTVPMTLCSPSS [rhesus TRIM5α, 332-344 = QARGTRFTFPSFV] | 0.728 ± 0.19 |
| MASGILLNVKEEVTCPICLELLTEPLSLHCGHSFCQACITANHKKSMLYKEGERSCPVCRISYQPENIQPNRHVANIVEKLREVKLSPEEGQKVDHCARHGEKLLLFCQEDSKVICWLCERSQEHRGHHTFLMEEVAQEYHVKLQTALEMLRQKQQEAEKLEADIREEKASWKIQIDYDKTNVSADFEQLREILDWEESNELQNLEKEEEDILKSLTKSETEMVQQTQYMRELISELEHRLQGSMMDLLQGVDGIIKRIENMTLKKPKTFHKNQRRVFRAPDLKGMLDMFRELTDARRYWVDVTLAPNNISHAVIAEDKRQVSSRNPQIMYGARGTLFPSLTNFNYCTGVLGSQSITSGKHYWEVDVSKKSAWILGVCAGFQSDAMYNIEQNENYQPKYGYWVIGLQEGVKYSVFQDGSSHTPFAPFIVPLSVIICPDRVGVFVDYEACTVSFFNITNHGFLIYKFSQCSFSKPVFPYLNPRKCTVPMTLCSPSS [rhesus TRIM5α, 332-344 = GARGTLFPSLT] | 1.08 ± 0.09 |
| MASGILLNVKEEVTCPICLELLTEPLSLHCGHSFCQACITANHKKSMLYKEGERSCPVCRISYQPENIQPNRHVANIVEKLREVKLSPEEGQKVDHCARHGEKLLLFCQEDSKVICWLCERSQEHRGHHTFLMEEVAQEYHVKLQTALEMLRQKQQEAEKLEADIREEKASWKIQIDYDKTNVSADFEQLREILDWEESNELQNLEKEEEDILKSLTKSETEMVQQTQYMRELISELEHRLQGSMMDLLQGVDGIIKRIENMTLKKPKTFHKNQRRVFRAPDLKGMLDMFRELTDARRYWVDVTLAPNNISHAVIAEDKRQVSSRNPQIMYGARGTLYTFPTLVNFNYCTGVLGSQSITSGKHYWEVDVSKKSAWILGVCAGFQSDAMYNIEQNENYQPKYGYWVIGLQEGVKYSVFQDGSSHTPFAPFIVPLSVIICPDRVGVFVDYEACTVSFFNITNHGFLIYKFSQCSFSKPVFPYLNPRKCTVPMTLCSPSS [rhesus TRIM5α, 332-344 = GARGTLYTFPTLV] | 3.79 ± 2.5 |
| MASGILLNVKEEVTCPICLELLTEPLSLHCGHSFCQACITANHKKSMLYKEGERSCPVCRISYQPENIQPNRHVANIVEKLREVKLSPEEGQKVDHCARHGEKLLLFCQEDSKVICWLCERSQEHRGHHTFLMEEVAQEYHVKLQTALEMLRQKQQEAEKLEADIREEKASWKIQIDYDKTNVSADFEQLREILDWEESNELQNLEKEEEDILKSLTKSETEMVQQTQYMRELISELEHRLQGSMMDLLQGVDGIIKRIENMTLKKPKTFHKNQRRVFRAPDLKGMLDMFRELTDARRYWVDVTLAPNNISHAVIAEDKRQVSSRNPQIMYQARGTRFTFQSFTNFNYCTGVLGSQSITSGKHYWEVDVSKKSAWILGVCAGFQSDAMYNIEQNENYQPKYGYWVIGLQEGVKYSVFQDGSSHTPFAPFIVPLSVIICPDRVGVFVDYEACTVSFFNITNHGFLIYKFSQCSFSKPVFPYLNPRKCTVPMTLCSPSS [rhesus TRIM5α, 332-344 = QARGTRFTFQSFT] | 1.16 ± 0.087 |

— the supplement of paper PMC12230231
